{"source": "PubChem BioAssay AID686978", "about": "(National Center for Advancing Translational Sciences (NCATS), 2013)", "note": "“And” between values parts separate entries of the source, which are not always exact repeats. Equal values may be shown once. The whole screen tested about 420,000 compounds, of which about 64,000 (15%) were called active. The inconclusive results got no clear call from the source; some entries with a clear call stand among them for comparison. Calls follow the shape of the dose curve; as a rule, active = well fitted inhibition curve with a large enough effect; inconclusive = small, poorly fitted or top-dose-only effect; inactive = flat fitted curve, though single readings scatter. Where the call is inconclusive, the potency comes from a doubtful curve fit. % is scaled to controls: 0 for no effect and ±100 for the full control effect; potency is read from the fitted curve at half-maximal effect; tags tell the direction and shape of the fitted curve."}
{"experiment": "qHTS for Inhibitors of human tyrosyl-DNA phosphodiesterase 1 (TDP1): qHTS in cells in absence of CPT; also: nearly all actives have a fitted effect of over 55% in size", "details": "DT40 Tdp1-/- hTDP1 cells, no CPT, ATP luminescence, 48 h; activity change, negative = growth inhibition: at 46.2 µM (top of the series) unless noted", "summary_of_the_method": "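Growth kinetics read by CellTiter-Glo luminescence after ≥48 hr at 37 °C. Cells: DT40 Tdp1-/- stably carrying human TDP1, 400 per well, compound exposure in the absence of CPT (DMSO vehicle).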"}
{"smiles": "CCC(=O)Nc1cc(C)c(O)c(-c2nc3ncccc3o2)c1", "Potency": "inconclusive: 8.2 µM [inhibitor, partial curve]"}
{"smiles": "CCN(CC1COc2ccccc2O1)C(=O)CN1C(=O)NC(C)(c2ccccc2)C1=O", "note": "(stereo not drawn)", "Potency": "inactive"}
{"smiles": "COc1ccc(NC(=O)c2cc(CC(C)C)nc3ccccc23)cc1", "Potency": "inconclusive: 18.4 µM [inhibitor, partial curve, poor fit]"}
{"smiles": "O=C(Nc1ccc2c(c1)OCO2)O[C@@H]1C[C@H]2CCC(=O)N3CC[C@@H](C1)[C@@H]23", "Potency": "inconclusive: 22.4 µM [inhibitor, single point]"}
{"smiles": "CCN(CC)CCNC(=O)c1cc2c(s1)-c1ccccc1SC2", "Potency": "active: 16.4 µM"}
{"smiles": "CCCc1ccc2oc(C(=O)N3CCC(N4CCCC(O)C4)CC3)c(C)c2c1", "note": "(stereo not drawn)", "Potency": "inconclusive: 29.1 µM [inhibitor, single point]"}
{"smiles": "COc1cccc(-n2nc(C(C)=O)c(=O)[nH]c2=O)c1", "Potency": "inactive"}
{"smiles": "CC1CCN(C(=O)Cn2cc(SCC(=O)NCc3ccccc3Cl)c3ccccc32)CC1", "Potency": "inconclusive: 23.1 µM [inhibitor, single point]"}
{"smiles": "O=C(CSc1nc2ccccc2c(=O)n1-c1ccccc1F)N1CCOCC1", "Potency": "inactive"}
{"smiles": "O=C(C(c1ccccc1)c1ccccc1)N1CCN(CC(O)COc2ccccc2)CC1", "note": "(stereo not drawn)", "Potency": "inconclusive: 14.6 µM [inhibitor, partial curve, poor fit]"}
{"smiles": "Cc1ccc(NC(=O)C2COc3ccccc3O2)cc1", "note": "(stereo not drawn)", "Potency": "inactive"}
{"smiles": "CCCn1c(SCC(=O)Nc2ccccc2C(=O)OC)nc2c1c(=O)n(C)c(=O)n2C", "Potency": "inconclusive: 16.4 µM [inhibitor, partial curve, poor fit]"}
{"smiles": "CCC(C(=O)Nc1cccc(Cl)c1C)n1nc(-c2ccc(C)cc2)ccc1=O", "note": "(stereo not drawn)", "Potency": "inconclusive: 18.4 µM [inhibitor, single point]"}
{"smiles": "CN1CCC(N2CCN(C3CN(C4CCCCC4)S(=O)(=O)C3)CC2)CC1", "note": "(stereo not drawn)", "Potency": "inactive"}
{"smiles": "CCN(CC)C(=O)CN(c1cc(Cl)ccc1OC)S(=O)(=O)c1ccc(C)c([N+](=O)[O-])c1", "Potency": "inconclusive: 18.4 µM [inhibitor, partial curve, poor fit]"}
{"smiles": "O=C(NCc1cccc(Cl)c1)c1cc2ccc3cccnc3c2[nH]1", "Potency": "inactive"}
{"smiles": "CN(C)c1cccc2c1c(NC(=O)Nc1ccc(F)cc1F)nn2C", "Potency": "inconclusive: 20.6 µM [inhibitor, partial curve]"}
{"smiles": "CN(C)c1cc(-c2ccc(C#N)cc2)oc(=O)c1Cl", "Potency": "inactive"}
{"smiles": "Nn1cnc2scc(-c3cccs3)c2c1=O", "Potency": "inactive"}
{"smiles": "CC(=O)Nc1ccc(CNc2nc(NC(C)C)nc3cc(-c4ccccc4)sc23)cc1", "Potency": "active: 4.11 µM"}
{"smiles": "CCOC(=O)c1nn(-c2ccc(C)c(C)c2)c(=O)c2c(N)scc12", "Potency": "inconclusive: 29.1 µM [inhibitor, single point]"}
{"smiles": "Cc1ccc(Cl)cc1NC(=O)C(C)n1nnc2sc3c(c2c1=O)CCCC3", "note": "(stereo not drawn)", "Potency": "active: 16.4 µM"}
{"smiles": "Oc1ccc(Oc2ncc(Cl)cc2Cl)cc1", "Potency": "inconclusive: 20.6 µM [inhibitor, single point]"}
{"smiles": "CCC(CC)NC(=O)c1oc2ccccc2c1COc1ccccc1", "Potency": "inconclusive: 29.1 µM [inhibitor, single point]"}
{"smiles": "Cc1ccc2c(c1)COc1c3ccc(C(=O)NCCO)cc3nn1-2", "Potency": "inconclusive: 25.9 µM [inhibitor, single point]"}
{"smiles": "O=C(CCCN1C(=O)c2cccnc2C1=O)Nc1ccc(Br)cc1", "Potency": "inactive"}
{"smiles": "COC1C(C)=C(C)C(=O)N1Cc1ccccc1", "note": "(stereo not drawn)", "Potency": "inconclusive: 29.1 µM [inhibitor, single point]"}
{"smiles": "Cc1cc(NC(=O)CSc2nnc(C3COc4ccccc4O3)n2N)no1", "note": "(stereo not drawn)", "Potency": "inconclusive: 20.6 µM [inhibitor, single point]"}
{"smiles": "CS(=O)(=O)N(CC(=O)NCc1ccc(Cl)cc1)C1CCCCC1", "Potency": "active: 14.6 µM"}
{"smiles": "Cc1cccc(N2CCN(S(=O)(=O)c3ccc4c(c3)CCCN4C(=O)C3CCC3)CC2C)c1", "note": "(stereo not drawn)", "Potency": "inconclusive: 29.1 µM [inhibitor, single point] and inconclusive: 20.6 µM [inhibitor, single point]"}
{"smiles": "CCn1cc(C(=O)O)c(=O)c2cc(F)c(N3CCN(C(=S)Nc4ccccc4OC)CC3)cc21", "activity change, negative = growth inhibition": "inconclusive: -38.5% [inhibitor]"}
{"smiles": "CC1(c2nc3ccccc3cc2C#N)OCCO1", "Potency": "inconclusive: 29.1 µM [inhibitor, single point]"}
{"smiles": "COc1ccc(NC(=O)c2oc3ccccc3c2NC(=O)c2ccc3c(c2)OCO3)cc1", "Potency": "inconclusive: 16.4 µM [inhibitor, partial curve]"}
{"smiles": "CCOC(=O)c1cccc(NC(=O)C2(S(=O)(=O)c3ccc(Cl)cc3)CC2)c1", "Potency": "inconclusive: 29.1 µM [inhibitor, single point]"}
{"smiles": "O=C(NC1CCCCCC1)c1ccc2c(c1)sc1nc(-c3ccc(F)cc3)cn12", "Potency": "active: 6.51 µM"}
{"smiles": "O=C(CSc1cccc[n+]1[O-])c1cc(Cl)ccc1Cl", "Potency": "active: 0.291 µM"}
{"smiles": "Cc1ccc(C)c(-n2nnnc2Sc2nc([N+](=O)[O-])nn2C)c1", "Potency": "inconclusive: 18.4 µM [inhibitor, single point]"}
{"smiles": "CCn1c(SCc2nc(N)nc(N3CCCCC3)n2)nc2c1c(=O)n(C)c(=O)n2C", "Potency": "inconclusive: 29.1 µM [inhibitor, single point]"}
{"smiles": "Cc1nc2cnc(N3CCNCC3)nc2n(Cc2ccc(F)cc2)c1=O", "Potency": "inconclusive: 25.9 µM [inhibitor, single point]"}
{"smiles": "Cc1ccc(Cn2nc(C)c(C(=O)N3CCN(S(=O)(=O)/C=C/c4ccccc4)CC3)c2C)cc1", "Potency": "inconclusive: 13 µM [inhibitor, partial curve, poor fit]"}
{"smiles": "C/C(CC(=O)Nc1ccc(Cl)c(C(F)(F)F)c1)=N\\NC(N)=S", "Potency": "inconclusive: 13 µM [inhibitor, partial curve, poor fit]"}
{"smiles": "Cn1c(=O)n(-c2ccc(Br)cc2F)c(=O)c2sc3ccccc3c21", "Potency": "inconclusive: 20.6 µM [inhibitor, partial curve, poor fit]"}
{"smiles": "O=C(CC1C(=O)NCCN1CC1CCCCC1)NC1(c2ccccc2)CC1", "note": "(stereo not drawn)", "Potency": "inconclusive: 29.1 µM [inhibitor, single point]"}
